# From the supplement of paper PMC8728848
# The list shows a part of the results.
# B1: Gal 7 (Homo sapiens) (protein)
# chain: MSNVPHKSSLPEGIRPGTVLRIRGLVPPNASRFHVNLLCGEEGGSDAALHFNPRLDTSEVVFNSKEGGSWGREERGPGVPFGRGQPFEVLIIASDDGFKAVVGDAQYHHFRHRLPLARVRLVEVGGDVQLDSVRIF
# Key:
# Experiment in all cases: glycan array binding signal (z-score within array); higher = stronger binding
# Conditions in all cases: glycan notation: IUPAC condensed, linker removed
# [1] = molecular target: Neu5Ac(a2-6)GalNAc(b1-4)GlcNAc
# Method in brief: (§1)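 Glycan array data came from 3228 arrays in the Consortium for Functional Glycomics database, and only arrays with an available protein sequence were kept. Glycan names were put into IUPAC-condensed notation, and columns mapping to the same glycan were averaged. The binding signal is a within-array Z-score, averaged across arrays of one protein sequence run at different concentrations or buffers and across linkers. A negative Z-score can be read as non-binding.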
# [2] = molecular target: Neu5Ac(a2-6)GalNAc(b1-4)GlcNAc6S
# Method in brief: as §1
# [3] = molecular target: Neu5Ac(a2-6)GlcNAc(b1-4)GlcNAc
# Method in brief: as §1
# [4] = molecular target: Neu5Ac(a2-6)GlcNAc(b1-4)GlcNAc(b1-4)GlcNAc
# Method in brief: as §1
# [5] = molecular target: Neu5Ac(a2-8)Neu5Ac
# Method in brief: as §1
# [6] = molecular target: Neu5Ac(a2-8)Neu5Ac(a2-3)Gal(b1-3)GalNAc(b1-4)[Neu5Ac(a2-3)]Gal(b1-4)Glc
# Method in brief: as §1
# [7] = molecular target: Neu5Ac(a2-8)Neu5Ac(a2-3)Gal(b1-3)GalNAc(b1-4)[Neu5Ac(a2-8)Neu5Ac(a2-3)]Gal(b1-4)Glc
# Method in brief: as §1
# [8] = molecular target: Neu5Ac(a2-8)Neu5Ac(a2-3)Gal(b1-4)Glc
# Method in brief: as §1
# [9] = molecular target: Neu5Ac(a2-8)Neu5Ac(a2-3)Gal(b1-4)GlcNAc
# Method in brief: as §1
# [10] = molecular target: Neu5Ac(a2-8)Neu5Ac(a2-3)[Gal(b1-3)GalNAc(b1-4)]Gal(b1-4)Glc
# Method in brief: as §1
# [11] = molecular target: Neu5Ac(a2-8)Neu5Ac(a2-3)[GalNAc(b1-4)]Gal(b1-4)Glc
# Method in brief: as §1
# [12] = molecular target: Neu5Ac(a2-8)Neu5Ac(a2-8)Neu5Ac
# Method in brief: as §1
# [13] = molecular target: Neu5Ac(a2-8)Neu5Ac(a2-8)Neu5Ac(a2-3)Gal(b1-4)Glc
# Method in brief: as §1
# [14] = molecular target: Neu5Ac(a2-8)Neu5Ac(a2-8)Neu5Ac(a2-3)[Gal(b1-3)GalNAc(b1-4)]Gal(b1-4)Glc
# Method in brief: as §1
# [15] = molecular target: Neu5Ac(a2-8)Neu5Ac(a2-8)Neu5Ac(a2-3)[GalNAc(b1-4)]Gal(b1-4)Glc
# Method in brief: as §1
# [16] = molecular target: Neu5Ac(a2-8)Neu5Ac(a2-8)Neu5Ac(a2-8)Neu5Ac(a2-3)[GalNAc(b1-4)]Gal(b1-4)Glc
# Method in brief: as §1
# [17] = molecular target: Neu5Ac(a2-8)Neu5Gc(a2-3)Gal(b1-4)GlcNAc
# Method in brief: as §1
# [18] = molecular target: Neu5Ac(b2-6)Gal(b1-4)GlcNAc
# Method in brief: as §1
# [19] = molecular target: Neu5Ac(b2-6)GalNAc
# Method in brief: as §1
# [20] = molecular target: Neu5Ac9Ac(a2-3)Gal(b1-3)GlcNAc
# Method in brief: as §1
# [21] = molecular target: Neu5Ac9Ac(a2-3)Gal(b1-4)GlcNAc
# Method in brief: as §1
# [22] = molecular target: Neu5Ac9Ac(a2-6)Gal(b1-4)GlcNAc
# Method in brief: as §1
# [23] = molecular target: Neu5Gc(a2-3)Gal(b1-3)GlcNAc
# Method in brief: as §1
# [24] = molecular target: Neu5Gc(a2-3)Gal(b1-3)[Fuc(a1-4)]GlcNAc
# Method in brief: as §1
# [25] = molecular target: Neu5Gc(a2-3)Gal(b1-4)Glc
# Method in brief: as §1
# [26] = molecular target: Neu5Gc(a2-3)Gal(b1-4)GlcNAc
# Method in brief: as §1
# [27] = molecular target: Neu5Gc(a2-3)Gal(b1-4)GlcNAc(b1-3)Gal(b1-4)GlcNAc(b1-2)Man(a1-3)[Neu5Gc(a2-3)Gal(b1-4)GlcNAc(b1-3)Gal(b1-4)GlcNAc(b1-2)Man(a1-6)]Man(b1-4)GlcNAc(b1-4)GlcNAc
# Method in brief: as §1
# [28] = molecular target: Neu5Gc(a2-3)Gal(b1-4)[Fuc(a1-3)]GlcNAc
# Method in brief: as §1
# [29] = molecular target: Neu5Gc(a2-3)Gal(b1-4)[Fuc(a1-4)]GlcNAc
# Method in brief: as §1
# [30] = molecular target: Neu5Gc(a2-6)Gal(b1-4)GlcNAc
# Method in brief: as §1
# [31] = molecular target: Neu5Gc(a2-6)GalNAc
# Method in brief: as §1
# [32] = molecular target: Neu5Gc(a2-8)Neu5Ac(a2-3)Gal(b1-4)GlcNAc
# Method in brief: as §1
# [33] = molecular target: Neu5Gc(a2-8)Neu5Gc(a2-3)Gal(b1-4)GlcNAc
# Method in brief: as §1
# [34] = molecular target: Neu5Gc(a2-8)Neu5Gc(a2-3)Gal(b1-4)GlcNAc(b1-3)Gal(b1-4)GlcNAc
# Method in brief: as §1
# [35] = molecular target: Neu5Gc(a2-8)Neu5Gc(a2-6)Gal(b1-4)GlcNAc
# Method in brief: as §1
# [36] = molecular target: Neu5Gc(b2-6)Gal(b1-4)GlcNAc
# Method in brief: as §1
binder,measurement,setting,value
B1,glycan array binding signal (z-score),[1],-0.38
same,glycan array binding signal (z-score),[2],-0.136
same,glycan array binding signal (z-score),[3],-0.318
same,glycan array binding signal (z-score),[4],-0.266
same,glycan array binding signal (z-score),[5],-0.266
same,glycan array binding signal (z-score),[6],-0.224
same,glycan array binding signal (z-score),[7],-0.192
same,glycan array binding signal (z-score),[8],0.101
same,glycan array binding signal (z-score),[9],-0.297
same,glycan array binding signal (z-score),[10],-0.117
same,glycan array binding signal (z-score),[11],-0.206
same,glycan array binding signal (z-score),[12],-0.331
same,glycan array binding signal (z-score),[13],-0.015
same,glycan array binding signal (z-score),[14],-0.191
same,glycan array binding signal (z-score),[15],-0.32
same,glycan array binding signal (z-score),[16],-0.227
same,glycan array binding signal (z-score),[17],-0.299
same,glycan array binding signal (z-score),[18],-0.328
same,glycan array binding signal (z-score),[19],-0.347
same,glycan array binding signal (z-score),[20],-0.346
same,glycan array binding signal (z-score),[21],-0.339
same,glycan array binding signal (z-score),[22],-0.307
same,glycan array binding signal (z-score),[23],0.572
same,glycan array binding signal (z-score),[24],-0.334
same,glycan array binding signal (z-score),[25],-0.174
same,glycan array binding signal (z-score),[26],-0.336
same,glycan array binding signal (z-score),[27],-0.158
same,glycan array binding signal (z-score),[28],0.064
same,glycan array binding signal (z-score),[29],-0.411
same,glycan array binding signal (z-score),[30],-0.292
same,glycan array binding signal (z-score),[31],-0.27
same,glycan array binding signal (z-score),[32],-0.294
same,glycan array binding signal (z-score),[33],-0.289
same,glycan array binding signal (z-score),[34],-0.286
same,glycan array binding signal (z-score),[35],-0.291
same,glycan array binding signal (z-score),[36],-0.301
